# Test results reported in PubChem BioAssay AID1768 (National Center for Advancing Translational Sciences (NCATS), 2009).
# Where “and” joins values, the source holds several entries; their conditions need not be identical. Identical values can stand only once. About 620 (0.23%) of roughly 270,000 compounds were called active. Inconclusive means that the source gave no clear call. Such entries were picked first, then a sample of the others. The call rests on the fitted dose curve; in most records, active means well fitted inhibition curve with a large enough effect in the polarisation, with a control signal flat (not every such curve was filed as active); inconclusive means small, poorly fitted or top-dose-only effect, or effect the other way, or a change in a side signal; inactive means no such curve, though single readings can be large or run the other way; the % refers to the polarisation. Where the call is inconclusive, the potency comes from a doubtful curve fit. “Side channel” marks fits to a control or component signal instead of the main read-out.
# Molecular target: Menin (Homo sapiens) (UniProt O00255)
# Experiment: qHTS Assay for Inhibitors Targeting the Menin-MLL Interaction in MLL Related Leukemias: Competition With Texas Red Labeled MLL-derived Mutant Peptide
# Settings: fluorescence polarization; series mostly up to 61.6 µM
# Source text: qHTS Assay for Inhibitors Targeting the Menin-MLL Interaction in MLL Related Leukemias NIH Chemical Genomics Center [NCGC] NIH Molecular Libraries Probe Centers Network [MLPCN] MLPCN Grant: MH084875-01A1 Assay Submitter (PI): Jolanta Grembecka, Tomasz Cierpicki, University of Virginia Translocations of the MLL (Mixed Lineage Leukemia) gene are frequently found in human leukemias affecting both children and adults. Fusion of MLL to one of more than 60 genes results in generation of oncogenic proteins upregulating Hox genes, which are vital to blood cell development. Patients harboring fusion of the MLL gene suffer from aggressive leukemias and respond poorly to available therapies. All of the oncogenic fusion proteins have a preserved N-terminal fragment of MLL that has been identified to interact with menin. It has been recently discovered that association with menin is critical to the leukemogenic activity of the MLL fusion oncoproteins. Selective targeting of the menin-MLL interaction could provide an attractive therapeutic approach to develop novel drugs for MLL-related leukemias. Small molecules blocking the menin-MLL interaction should reverse the oncogenic potential of MLL fusion proteins. We have developed and optimized a fluorescence polarization-based assay for the identification of Menin-MLL inhibitors. The assay was run employing two different MLL-derived peptides. The present assay uses a 12 amino acid peptide labeled with fluorescein at its N-terminus. This peptide consists of the menin high affinity binding motif from MLL and is potently bound by menin. Another peptide with a mutated sequence, labeled with Texas Red, was used in parallel as a less stringent screen for inhibitors.
# The Menin protein, the MLL-wild type (w.t.) derived peptide (N-terminal 12 amino acids), the MLL-derived peptide labeled with Texas Red and the MLL-w.t. peptide labeled with Fluorescein were kindly supplied by laboratory of Dr. Jolanta Grembecka, University of Virginia. All protein and peptide solutions were stored in single use aliquots at -80C. The Eu3+ Cyrptate-conjugated mouse monoclonal antibody anti-6 Histidine (Eu3+-AB) and the Streptavidin-XL665 conjugate (XL665) were purchased from Cisbio International (Bedford, MA). All antibody and XL665 conjugate solution stocks were stored in single use aliquots at -20C. The Buffer components for all assays were purchased from Sigma-Aldrich (St. Louis, MO) and Invitrogen (Carlsbad, CA). FP Assay Reagents: 1. FP reaction buffer: 50 mM Tris-HCl pH 7.5, 50 mM NaCl, 1mM DTT. Before use, 0.05% BSA is added. 2. Menin protein, MLL-w.t. labeled with fluorescein, MLL-mutant peptide labeled with texas red. Stored in singe use aliquots at -80C. 3. MLL-w.t. unlabeled peptide as positive control: 10 uM final in FP buffer. FP Assay Procedure: 1. Prepare Menin at 200 nM, MLL-w.t.-fluorescein at 25 nM, and MLL-mutant-texas red at 50 nM mixture in FP buffer. 2. Prepare Menin at 200 nM, MLL-w.t.-fluorescein at 25 nM, MLL-mutant-texas red at 50 nM, and 10 uM MLL-w.t. unlabeled mixture in FP buffer. 3. Prepare MLL-w.t.-fluorescein at 25 nM and MLL-mutant-texas red at 50 nM mixture in FP buffer. 3. Dispense 4 ul per well of reagent in step 1 in columns 2, 4 - 48 in a black 1536 well plate, dispense 4 ul per well of reagents from steps 2 and 3 in columns 1 and 3 respectively. Incubate plate at ambient for 15 minutes. 4. Transfer 23 nl per well of compound to plate and incubate at ambient for 1 hr. 5. Read fluorescence polarization for each label using the PerkinElmer Envision. Envision protocol for fluorescein: FITC FP Dual Enh Mirror, Excitation filter 480, Emission filter (1) P-pol 535, Emission filter (2) S-pol 535 Envision protocol for texas red: FP Dual Enh Mirror, Excitation filter 555, Emission filter (1) P-pol 632, Emission filter (2) S-pol 632
# Potency means the concentration at half of the fitted maximal effect; tags describe the fitted curve by direction and shape or compound fluorescence and quenching.
# Chain of UniProt O00255 (O00255 whole entry, looked up): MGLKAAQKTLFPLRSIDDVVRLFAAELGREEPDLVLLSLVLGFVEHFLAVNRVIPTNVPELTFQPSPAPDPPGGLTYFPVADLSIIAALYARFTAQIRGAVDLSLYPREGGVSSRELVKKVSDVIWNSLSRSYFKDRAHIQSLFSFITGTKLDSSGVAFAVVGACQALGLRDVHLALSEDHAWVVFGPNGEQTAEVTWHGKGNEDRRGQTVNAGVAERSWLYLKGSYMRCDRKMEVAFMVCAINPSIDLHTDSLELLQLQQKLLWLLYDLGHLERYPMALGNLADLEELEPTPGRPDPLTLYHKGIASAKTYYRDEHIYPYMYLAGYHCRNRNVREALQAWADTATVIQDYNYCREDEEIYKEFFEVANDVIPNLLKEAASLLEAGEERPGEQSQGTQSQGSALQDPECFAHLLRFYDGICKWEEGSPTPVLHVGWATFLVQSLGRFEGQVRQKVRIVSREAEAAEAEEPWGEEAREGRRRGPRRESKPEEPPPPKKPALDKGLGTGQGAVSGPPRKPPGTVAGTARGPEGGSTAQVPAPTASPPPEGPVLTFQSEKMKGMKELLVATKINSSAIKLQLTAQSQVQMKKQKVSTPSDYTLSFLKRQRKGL
row,Structure (SMILES),Potency
1,COc1c(O)cc2oc(-c3ccc(O)cc3)cc(=O)c2c1O,"inconclusive: 31.6 µM [quencher, side channel, single point]"
2,CNCCCC12CCC(c3ccccc31)c1ccccc12,"inconclusive: 25.1 µM [fluorescent, side channel, single point] and inconclusive: 39.8 µM [fluorescent, side channel, single point]"
3,COC(=O)c1ccc(N2NC(=O)/C(=C/c3ccc(-c4ccc(Cl)c(C(=O)O)c4)o3)C2=O)cc1,"inconclusive: 28.2 µM [quencher, side channel, partial curve]"
4,COc1cccc(NC(=O)COC(=O)c2nc3nccc(C)n3n2)c1,"inconclusive: 25.1 µM [quencher, side channel, partial curve]"
5,CCCCC1(C)NC(=O)N(CC(=O)Nc2ccc(S(=O)(=O)N3CCOCC3)cc2)C1=O (stereo not given),"inconclusive: 25.1 µM [quencher, side channel, partial curve]"
6,Cc1noc(C)c1C(=O)Nc1sc(C)c(C)c1C#N,"inconclusive: 1 µM [inhibitor, full curve]"
7,Cc1cc(C)cc(N=c2c([N+](=O)[O-])nn(-c3ccc4c(c3)OCCO4)n2O)c1,"inconclusive: 14.1 µM [quencher, side channel, partial curve]"
8,O=C(O)COc1ccccc1/C=N/NC(=O)c1cccc(S(=O)(=O)Nc2cccc(Cl)c2)c1,"inconclusive: 11.2 µM [quencher, side channel, single point]"
9,Cc1ccc(C(=O)NC(NC(=O)c2ccc(C)cc2)C(Cl)Cl)cc1,"inconclusive: 39.8 µM [inhibitor, single point]"
10,Cc1ccccc1Cn1nc(C)c(NC(=O)c2noc3c2CC(C(C)(C)C)CC3)c1C (stereo not given),"inconclusive: 3.16 µM [fluorescent, side channel, full curve]"
11,C=CCn1c(O)c(N=NC(=S)Nc2cccc(C)c2)c2ccccc21,"inconclusive: 2.51 µM [quencher, side channel, full curve]"
12,O=C1Cc2c([nH]c3ccc(Br)cc23)-c2ccccc2N1,"inconclusive: 35.5 µM [quencher, side channel, partial curve]"
13,O=C(COc1ccccc1)Nc1nc2cc3c(cc2s1)OCCO3,"inconclusive: 39.8 µM [fluorescent, single point]"
14,COc1cccc(OCC(=O)NNC(=S)Nc2ccc(Cl)cc2Cl)c1,"inconclusive: 35.5 µM [quencher, side channel, single point]"
15,COc1cccc(N=Nc2c(N)[nH][nH]c2=O)c1,"inconclusive: 25.1 µM [quencher, side channel, single point]"
16,O=C(Nc1cccc2c1CCCC2)c1cc([N+](=O)[O-])cc([N+](=O)[O-])c1,"inconclusive: 25.1 µM [quencher, side channel, single point]"
17,CC(C)(CNC(=S)NCCc1ccccc1)CNC(=S)NCCc1ccccc1,"inconclusive: 20 µM [quencher, side channel, partial curve]"
18,O=C(O)c1ccc(-c2nc(-c3ccc(Cl)c(Cl)c3)cs2)cc1,"inconclusive: 14.1 µM [quencher, side channel, partial curve]"
19,[O-]/C(=C(\C(=S)Nc1ccccc1F)[n+]1ccccc1)c1ccc(-c2ccccc2)cc1,"inconclusive: 22.4 µM [quencher, side channel, single point]"
20,Fc1ccc(Nc2ncncc2-c2ccccc2C(F)(F)F)cc1,"inconclusive: 44.7 µM [inhibitor, partial curve]"
21,Cn1c(N)c(C(=O)COC(=O)c2cc(C3CC3)nc3ccccc23)c(=O)n(C)c1=O,"inconclusive: 35.5 µM [quencher, side channel, single point] and inconclusive: 22.4 µM [quencher, single point]"
22,COc1ccc(N2CCN(C(=O)COc3ccc4ccccc4c3)CC2)cc1,"inconclusive: 7.08 µM [fluorescent, side channel, full curve, poor fit]"
23,O=C1NN(c2ccccc2)C(=O)/C1=C/c1ccc(-c2ccc(C(=O)O)cc2)o1,"inconclusive: 11.2 µM [quencher, side channel, partial curve]"
24,CCOc1ccc(NC(=O)CN(c2ccc([N+](=O)[O-])cc2)S(=O)(=O)c2ccccc2)cc1,"inconclusive: 35.5 µM [quencher, side channel, single point]"
25,COc1cc(OC)cc(C(=O)Nc2cccc(NC(=O)c3ccccc3)c2)c1,"inconclusive: 17.8 µM [quencher, side channel, partial curve]"
26,COc1ccc2c(c1)c(CC(=O)N1CCOCC1)c(C)n2C(=O)c1ccc(Cl)cc1,"inconclusive: 15.8 µM [fluorescent, side channel, partial curve]"
27,Cc1cccc(C)c1NC(=O)C(=O)c1cn(C)c2ccccc12,inactive
28,COc1ccc(CNC(=O)CSCc2cnn(-c3ccccc3)c2-n2cccc2)cc1,"inconclusive: 25.1 µM [fluorescent, side channel, single point]"

row,Structure (SMILES),Potency
1,O=C(O)c1cc(N/N=C/C=C/c2ccccc2)ccc1Cl,"inconclusive: 28.2 µM [quencher, side channel, partial curve]"
2,CC(=O)N[C@@H](C(=O)O)C(C)(C)SN=O,"inconclusive: 12.6 µM [inhibitor, partial curve]"
3,NC(=O)COc1ccc(C23CC4CC(CC(C4)C2)C3)cc1,"inconclusive: 14.1 µM [fluorescent, side channel, partial curve]"
4,O=C(NC(=S)Nc1cccc(NC(=O)c2ccccc2Cl)c1)c1cccs1,"inconclusive: 39.8 µM [inhibitor, single point]"
5,Cc1ccc(-c2nnc(N3CCCCC3)c3ccccc23)cc1S(=O)(=O)N1CCN(C)CC1,"inconclusive: 5.01 µM [inhibitor, full curve]"
6,Cc1ccc(O)c(CNc2nc3ccccc3n2C(C)C)c1,"inconclusive: 35.5 µM [quencher, side channel, single point]"
7,Cc1ccc(OCC(=O)N/N=C\c2ccc(C)o2)c(C)c1,"inconclusive: 39.8 µM [inhibitor, single point]"
8,O=C(O)c1ccc(Cl)c(S(=O)(=O)Nc2ccc3cn[nH]c3c2)c1,"inconclusive: 35.5 µM [quencher, side channel, single point]"
9,Nc1nc(-c2cc(O)ccc2[N+](=O)[O-])cc(-c2ccccc2)c1[N+](=O)[O-],"inconclusive: 2 µM [quencher, side channel, full curve]"
10,COc1ccc(C(CNC(=O)CN2C(=O)NC3(CC(C)CC(C)(C)C3)C2=O)N2CCOCC2)cc1 (stereo not given),"inconclusive: 39.8 µM [inhibitor, partial curve]"
11,Cc1nc(NNC(=O)c2ccc([N+](=O)[O-])cc2)cc(-c2ccccc2)n1,"inconclusive: 20 µM [quencher, side channel, single point]"
12,COC(/C(=N/O)c1ccc(Cl)cc1)c1ccccc1 (stereo not given),"inconclusive: 31.6 µM [quencher, partial curve]"
13,COC(=O)c1ccc(NCCc2csc(-c3ccc(C)cc3)n2)c([N+](=O)[O-])c1,"inconclusive: 5.62 µM [quencher, side channel, single point]"
14,Cc1ccc(-c2cc(C(F)F)nc(N3CCC(C)CC3)n2)cc1,inactive
15,COc1ccc(/C=C/c2nc3ccccc3n2C)cc1,inactive
16,N#C/C(=C\c1ccc(-c2ccccc2C(=O)O)o1)c1nc2ccccc2[nH]1,"inconclusive: 35.5 µM [quencher, side channel, single point]"
17,COc1ccc(OC)c(Nc2ccc(Nc3cc(OC)ccc3OC)nn2)c1,"inconclusive: 22.4 µM [quencher, side channel, partial curve]"
18,CCOC(=O)C1=C(C)NC2(O)c3ccccc3C(=O)C12O (stereo not given),"inconclusive: 3.16 µM [inhibitor, single point]"
19,CC(C)CCCC(C)CCCC(C)CCCC(C)C(=O)O (stereo not given),inactive
20,N#C/C(=C\c1ccc(Oc2ccc(C(F)(F)F)cc2[N+](=O)[O-])cc1)c1nc2ccccc2[nH]1,"inconclusive: 31.6 µM [quencher, side channel, partial curve]"
21,CCCC(=O)Nc1nnc(-c2cccc(OCC)c2)s1,inactive
22,CCCCOc1ccc(/C=C/C(=O)NCCc2nc3ccccc3[nH]2)cc1,"inconclusive: 39.8 µM [inhibitor, single point]"
23,Cc1occc(=O)c1OC(=O)Nc1ccc(Cl)c(Cl)c1,"inconclusive: 22.4 µM [quencher, side channel, partial curve]"
24,CCOC(=O)Cn1c(=NC(=O)c2sc3ccccc3c2Cl)sc2cc(S(N)(=O)=O)ccc21,"inconclusive: 10 µM [inhibitor, partial curve]"
25,O=C1C2CCCN2C(c2ccccc2F)N1c1ccc(Cl)cc1 (stereo not given),"inconclusive: 7.94 µM [inhibitor, full curve]"
26,CCOC(=O)C1=C(N)OC2=C(C(=O)CC(C)(C)C2)C1C1CCCCC1 (stereo not given),"inconclusive: 17.8 µM [fluorescent, side channel, single point]"
27,O=C(CSc1nccn1-c1ccccc1)c1ccc(Cl)cc1,"inconclusive: 8.91 µM [inhibitor, single point]"
